Among all 390,000 compounds or so, about 4,700 (1.2%) were called active. Inconclusive results, whose numbers are uncertain, are shown with a selection of clear calls. Calls come from the whole dose curve; as a rule, active = well fitted inhibition curve with a large enough effect; inconclusive = small, poorly fitted or top-dose-only effect, or another doubt; inactive = no such curve, though single readings can be large or run the other way. Potencies of inconclusive entries are doubtful fits and often do not repeat.
Target: DNA polymerase eta (Homo sapiens) (UniProt Q9Y253)
Sequence of UniProt Q9Y253 (Q9Y253 whole entry, looked up): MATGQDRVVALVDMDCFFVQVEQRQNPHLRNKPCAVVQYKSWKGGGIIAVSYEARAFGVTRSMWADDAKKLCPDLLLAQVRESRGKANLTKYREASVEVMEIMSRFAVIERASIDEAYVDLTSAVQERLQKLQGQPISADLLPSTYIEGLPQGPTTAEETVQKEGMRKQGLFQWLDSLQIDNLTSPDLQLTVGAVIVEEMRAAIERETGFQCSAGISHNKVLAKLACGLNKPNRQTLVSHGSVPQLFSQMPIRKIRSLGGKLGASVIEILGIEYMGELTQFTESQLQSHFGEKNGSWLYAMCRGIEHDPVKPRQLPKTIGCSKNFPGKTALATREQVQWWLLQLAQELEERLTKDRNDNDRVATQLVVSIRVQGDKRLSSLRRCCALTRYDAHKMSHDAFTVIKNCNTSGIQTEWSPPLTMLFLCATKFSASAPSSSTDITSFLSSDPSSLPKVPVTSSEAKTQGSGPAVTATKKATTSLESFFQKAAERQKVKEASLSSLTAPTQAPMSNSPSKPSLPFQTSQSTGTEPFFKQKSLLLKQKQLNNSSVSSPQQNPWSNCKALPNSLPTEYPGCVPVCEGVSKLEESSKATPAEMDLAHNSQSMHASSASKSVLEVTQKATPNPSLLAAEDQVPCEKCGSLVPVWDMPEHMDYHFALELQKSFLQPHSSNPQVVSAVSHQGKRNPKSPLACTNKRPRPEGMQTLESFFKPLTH
Test: qHTS for Inhibitors of Polymerase Eta
Conditions: recombinant Pol eta, fluorescent DNA replication assay; series mostly up to 114 µM; activity change, negative = inhibition: at the top concentration
In short: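 Pol eta (10 nM) was preincubated with compounds for 15 min at room temperature, after which fluorescent replication substrate (50 nM final) was added to start the reaction. Fluorescence was read kinetically at 0 and 10 min.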
% is set by controls: 0 for no effect and ±100 for the full control effect; potency is the fitted concentration of half-maximal effect; tags give direction and shape of the fitted curve.

Question: CN(C)c1ccc(N/C=C/C(=O)c2ccco2)cc1 was tested. Which “activity change, negative = inhibition” value did it give?
Answer: inactive: -14.9%

Question: For Cc1ccc(/C=N/Nc2nc(C(C)(C)C)cs2)o1, which “activity change, negative = inhibition” value is on record?
Answer: inactive: -7.29%

Question: For O=C(NCc1ccccc1)C1C(=O)N(Cc2ccccc2)C(=O)C1C1(O)CCCC1 (configuration not stated), which Potency is on record?
Answer: inconclusive: 70.8 µM [inhibitor, partial curve, poor fit]

Question: With COc1ccc(OCC(=O)N(Cc2cccc(OC)c2)C2CCS(=O)(=O)C2)cc1 (configuration not stated) as the molecule, how does the “activity change, negative = inhibition” value read?
Answer: inactive: -19.1%

Question: Which Potency does the source give for CC(=O)c1ccc(NC(=O)Nc2ccc([N+](=O)[O-])cc2C)cc1 here?
Answer: inconclusive: 25.1 µM [inhibitor, single point]

Question: Which Potency does the source give for CCOc1ccc2c(S(=O)(=O)O)cccc2c1[N+](=O)[O-] here?
Answer: inconclusive: 31.6 µM [inhibitor, partial curve, poor fit]

Question: Which Potency does the source give for CC(CCc1ccccc1)NC(=O)CSc1cccc[n+]1[O-] (configuration not stated) here?
Answer: inconclusive: 89.1 µM [inhibitor, single point]

Question: Which Potency does the source give for O=C(CN1C(=O)c2cccc3cccc1c23)Nc1ccccc1 here?
Answer: active: 50.1 µM

Question: Cc1ccc(/C=N/NC(=O)c2c(C)nc3ccc(Br)cn23)cc1 was tested. Which “activity change, negative = inhibition” value did it give?
Answer: inactive: -16.9%

Question: Which Potency does the source give for COC(=O)c1cccc(C(=O)Nc2cnc3ccccc3c2)n1 here?
Answer: inconclusive: 4.47 µM [inhibitor, partial curve, poor fit]

Question: C/C(=N\NC(=O)c1cc(O)cc(O)c1)c1ccc(NC(=O)Cc2ccccc2)cc1 was tested. Which Potency did it give?
Answer: active: 3.16 µM

Question: With Nc1nonc1-c1nc2ccccc2n1Cc1c(Cl)cccc1Cl as the molecule, how does the “activity change, negative = inhibition” value read?
Answer: inactive: -24.5%

Question: Which “activity change, negative = inhibition” value does the source give for CCOc1ccc(N2C(=O)C3C4C=CC([C@H]5CC45)[C@@H]3C2=O)cc1 (some centres not stated) here?
Answer: inactive: -14.7%

Question: For Cc1cccc(NC(=O)CSc2nnc(-c3ccco3)c(-c3ccco3)n2)c1, which Potency is on record?
Answer: active: 39.8 µM

Question: For Cn1c(=O)oc2cc(S(=O)(=O)Nc3ccc4c(c3)OCO4)ccc21, which Potency is on record?
Answer: inconclusive: 28.2 µM [inhibitor, single point]

Question: How did the “activity change, negative = inhibition” value turn out when O=C(Nc1nonc1-c1ccc(Cl)cc1)c1ccccc1F was run?
Answer: inactive: -16.9%

Question: CCOC(=O)c1scc(-c2ccccc2)c1S(=O)(=O)Nc1ccc(N(C)C)cc1 was tested. Which “activity change, negative = inhibition” value did it give?
Answer: inactive: -8.91%

Question: With Cc1cccn2c(=O)c3cc(C#N)c(=NC(=O)c4ccco4)n(Cc4ccco4)c3nc12 as the molecule, how does the Potency read?
Answer: inconclusive: 56.2 µM [inhibitor, partial curve, poor fit]

Question: With CCC(Sc1nc(-c2cccc(OC)c2)c(C#N)c(=O)[nH]1)C(=O)Nc1nnc(C(C)C)s1 (configuration not stated) as the molecule, how does the “activity change, negative = inhibition” value read?
Answer: inactive: -0.174%

Question: CCCC(C)NC(=O)c1c2c(nc3ccccc13)CCC2 (configuration not stated) was tested. Which Potency did it give?
Answer: inconclusive: 79.4 µM [inhibitor, partial curve]

Question: How did the Potency turn out when O=C(CSc1ccsc1[N+](=O)[O-])Nc1cc(F)ccc1F was run?
Answer: active: 7.08 µM

Question: For Cc1ccc(OCC(=O)Nc2ccc(-c3nc4ncccc4o3)cc2)c(C)c1, which Potency is on record?
Answer: inconclusive: 14.1 µM [inhibitor, partial curve]

Source: PubChem BioAssay AID588591 (National Center for Advancing Translational Sciences (NCATS), 2011)
